In all, about 110,000 compounds were measured (“z-score”: median about -0.1, highest 2% from about 2 on). The list shows a part of the results.
target: Metabotropic glutamate receptor 8 (Rattus norvegicus) (UniProt P70579); assay: rat mGluR8 modulators via GIRK flux, primary screen, cell-based, thallium flux, HTS (AID 488969); conditions: HEK293 rat mGluR8, GIRK (G protein-gated inwardly rectifying potassium channel) thallium flux, FluoZin2; at 10 µM; stronger effect = higher value; submaximal glutamate (EC20) added with thallium
Sequence of UniProt P70579 (P70579 whole entry, looked up): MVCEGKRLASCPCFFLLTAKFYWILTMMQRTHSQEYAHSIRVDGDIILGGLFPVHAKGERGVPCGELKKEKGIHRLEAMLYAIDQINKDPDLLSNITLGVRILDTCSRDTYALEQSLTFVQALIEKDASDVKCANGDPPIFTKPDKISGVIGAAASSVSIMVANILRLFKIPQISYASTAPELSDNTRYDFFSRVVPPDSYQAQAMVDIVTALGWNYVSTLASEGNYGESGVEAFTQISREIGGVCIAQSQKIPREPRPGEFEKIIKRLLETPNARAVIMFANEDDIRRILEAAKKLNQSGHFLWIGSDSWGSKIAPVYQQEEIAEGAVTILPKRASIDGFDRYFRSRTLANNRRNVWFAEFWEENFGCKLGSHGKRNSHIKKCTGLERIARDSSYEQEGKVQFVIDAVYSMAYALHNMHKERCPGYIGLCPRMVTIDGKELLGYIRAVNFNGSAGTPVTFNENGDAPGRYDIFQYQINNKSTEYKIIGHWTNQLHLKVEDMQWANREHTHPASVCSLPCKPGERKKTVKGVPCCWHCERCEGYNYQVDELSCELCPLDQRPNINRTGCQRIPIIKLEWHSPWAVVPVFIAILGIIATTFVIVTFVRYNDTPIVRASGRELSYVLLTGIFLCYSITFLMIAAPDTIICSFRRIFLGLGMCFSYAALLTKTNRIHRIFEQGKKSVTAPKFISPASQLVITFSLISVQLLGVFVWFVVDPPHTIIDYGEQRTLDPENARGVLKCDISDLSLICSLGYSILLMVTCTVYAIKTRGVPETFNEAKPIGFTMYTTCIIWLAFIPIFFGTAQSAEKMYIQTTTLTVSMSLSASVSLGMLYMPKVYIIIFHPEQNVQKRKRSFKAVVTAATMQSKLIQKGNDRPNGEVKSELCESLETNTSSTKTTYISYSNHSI

Row | SMILES | z-score
1 | CN1/C(=C\C=C(/C#N)C(=O)Nc2ccccc2F)C(C)(C)c2ccccc21 | -0.185
2 | CC(C)(C)n1cnc2cc(NS(=O)(=O)c3ccccc3)ccc21 | 0.0342
3 | COc1cc(C(=O)N2CCN(C(=O)CC(C)C)CC2)cc(OC)c1OC | 0.884
4 | CN(Cc1ccccc1)c1nc2c(c(=O)[nH]c(=O)n2C)n1Cc1ccccc1 | -0.176
5 | O=C(OCCOc1ccc(Br)cc1)c1cnccn1 | -0.463
6 | Cn1c(=O)oc2cc(S(=O)(=O)NC3CCN(Cc4ccccc4)CC3)ccc21 | -0.316
7 | COc1ccc(-c2nc(-c3ccccc3)c(-c3cc([N+](=O)[O-])ccc3C)[nH]2)cc1OC | -0.0477
8 | O=C(Nc1cc(Cl)ccc1Cl)c1ccc(-c2ccccc2)cc1 | 0.577
9 | C=C(C)C1CC=C(C)/C(=N/NC(=O)c2ccc(NC(=O)CCC)cc2)C1 (configuration not stated) | 1.79
10 | O=C(Nc1nnc(Cc2ccccc2)s1)c1ccco1 | -1.09
11 | N#Cc1cc2c(N)c(C(=O)Nc3ccccc3)sc2nc1N | -0.112
12 | O=C(NNC1CC(=O)N(c2ccc3c(c2)OCCO3)C1=O)c1ccccc1 (configuration not stated) | -0.172
13 | C=CCn1c(-c2ccc(Cl)cc2)ccc(C#N)c1=O | -0.191
14 | CCCC(C)C(=O)Nc1ccc(Cl)cc1Cl (configuration not stated) | -0.349
15 | Cc1ccc(-n2nnnc2SCc2ccccn2)cc1C | -0.0348
16 | COC(=O)c1ccc(C(=O)OC)c(NC(=O)CCc2ccc(C)o2)c1 | -0.67
17 | Nc1nnc(SCC(=O)Nc2cc(C(F)(F)F)ccc2N2CCOCC2)s1 | -0.569
18 | COc1ccc(OCC(=O)N/N=C2\CCCc3ccccc32)cc1 | -0.0965
19 | CCCn1c(SCC(=O)c2ccc3c(c2)OCCO3)nnc1C(C)C | 0.298

Row | SMILES | z-score
20 | Cc1ccc(OCC(=O)NNC(=O)C2CCN(c3ncccn3)CC2)cc1 | 0.269
21 | O=C(/C=C/Nc1ccc([N+](=O)[O-])cc1)c1ccc(Br)cc1 | -0.483
22 | CC1CCCC(C)N1/N=C/c1cc(Br)cc(Br)c1O (configuration not stated) | -0.515
23 | N/N=C(\c1ccccc1)C12CN3CN(CN(C3)C1)C2 | -0.101
24 | Cc1cc(-c2ccccc2)c(C#N)c(=S)[nH]1 | 0.152
25 | COC(=O)c1cc(Cl)c(NC(=O)c2ccc(F)cc2)cc1OC | -0.134
26 | Clc1ccc(SCCCCN2CCNCC2)cc1 | 0.34
27 | Cc1cc(Oc2ccccc2)nc(-c2ccccc2)n1 | -0.099
28 | COc1cc(/C=C(\C#N)C(=O)NCC2CCCO2)ccc1OC(C)C (configuration not stated) | -1.23
29 | CCCCn1c(=O)c(F)cn(Cc2ccc(OC)c([N+](=O)[O-])c2)c1=O | 0.141
30 | CC1=C(C(=O)OC(C)C)C(c2cccc(F)c2)N2C(=O)C(C)SC2=N1 (configuration not stated) | -1.71
31 | CC(=O)c1ccc2c(c1)N(C)c1ccccc1S2 | -0.0109
32 | COC(=O)c1ccc(NC(=O)CSc2nnc(C(C)NC(=O)c3ccccc3Cl)n2C)cc1 (configuration not stated) | 0.368
33 | O=C(N/N=C/c1ccc2c(c1)OCO2)c1ccc(Cn2cc([N+](=O)[O-])cn2)o1 | -0.22
34 | O=C1c2ccccc2C(=O)N1CCN1CCOCC1 | 0.138
35 | Cc1cccc(NC(=O)Nc2cccc(Oc3c(F)c(F)c(F)c(F)c3F)c2)c1 | 0.426
36 | O=S(=O)(NCC1CCCO1)c1ccc(Oc2ccccc2)cc1 (configuration not stated) | 0.278
37 | Nc1cc(N)nc(SCC(=O)NNC(=O)c2ccc(Cl)cc2)n1 | 0.373
38 | CCOC(=O)c1c(C)n(C)c2ccc(OC(C)C(=O)OC)cc12 (configuration not stated) | -0.484

Row | SMILES | z-score
39 | COc1ccc(N2CCN(C(=O)CSc3nnc(-c4cccnc4)n3-c3ccc(F)cc3)CC2)cc1 | -0.412
40 | O=C(CCC1COc2ccccc2O1)NCc1ccco1 (configuration not stated) | 0.438
41 | CCCOc1ccccc1C1C(C(=O)OC)=CN(C(C)C)C=C1C(=O)OC | 1.83
42 | COc1ccc(C2C(C#N)=C(N)Oc3c2oc(CO)cc3=O)c(OC)c1OC (configuration not stated) | -0.186
43 | Cc1ccc(NC(=O)CN2CCC(C(=O)c3ccc4c(c3)OCCO4)CC2)cc1 | -0.152
44 | CCc1nnc(NC(=O)CCC(=O)N2CCN(c3ccccn3)CC2)s1 | -0.0154
45 | CNC(=O)CSc1nnnn1-c1ccc2c(c1)OCCO2 | 0.0843
46 | COc1cnn(-c2cc(Oc3ccc(C)cc3)ncn2)c(=O)c1Cl | -0.202
47 | CC1CCCN(C(=O)CSc2nc3ccccc3o2)C1 (configuration not stated) | 0.161
48 | c1ccc(-c2ccnc3nc(-n4cccc4)nn23)cc1 | -0.562
49 | CSc1ccc(S(=O)(=O)NCc2ccccc2)cc1 | 0.252
50 | NCCc1nnc(SCc2c(F)cccc2Cl)o1 | -0.0454
51 | O=C(CCS(=O)CCC(=O)NCc1ccccc1)NCc1ccccc1 | -0.151
52 | CCOc1cccc(-n2nnnc2-c2ccc(OC)cc2)c1 | -0.342
53 | Cc1ccc(S(=O)(=O)/N=C(\c2ccc(Cl)cc2)N2CCOCC2)cc1 | 0.0402
54 | COc1ccccc1/C=N/n1c(N)c(C(=O)NC2CCCCC2)c2nc3ccccc3nc21 | 0.122
55 | CCc1ccc(NC(=O)c2cc(-c3ccco3)on2)cc1 | 0.0921
56 | Cc1ccc(C(=O)Nc2sc3c(c2C(=O)O)CCCCC3)o1 | -0.306
57 | CCOC(=O)c1ccc(N2C(=O)CC(N3CCCC(C)C3)C2=O)cc1 (configuration not stated) | 0.101

Source: PubChem BioAssay AID488969 (Vanderbilt High Throughput Screening Facility, 2010)
